# Assay results from PMC4336329 (PLoS ONE, 2015).
# Hit rate of the full screen: of about 310,000 compounds, about 14,000 (4.5%) showed an effect of 50% or more. The effect is printed as a negative number. The list shows a part of the results.
# Molecular target: human ether-à-go-go-related gene (hERG) potassium channel (human, UniProt Q12809)
# Assay: primary screen, population patch clamp on CHO cells stably expressing hERG
# 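Note: peak tail current of the secondary pulse compared with the same well before compound.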
# Chain of human ether-à-go-go-related gene (hERG) potassium channel (Q12809 whole entry, looked up): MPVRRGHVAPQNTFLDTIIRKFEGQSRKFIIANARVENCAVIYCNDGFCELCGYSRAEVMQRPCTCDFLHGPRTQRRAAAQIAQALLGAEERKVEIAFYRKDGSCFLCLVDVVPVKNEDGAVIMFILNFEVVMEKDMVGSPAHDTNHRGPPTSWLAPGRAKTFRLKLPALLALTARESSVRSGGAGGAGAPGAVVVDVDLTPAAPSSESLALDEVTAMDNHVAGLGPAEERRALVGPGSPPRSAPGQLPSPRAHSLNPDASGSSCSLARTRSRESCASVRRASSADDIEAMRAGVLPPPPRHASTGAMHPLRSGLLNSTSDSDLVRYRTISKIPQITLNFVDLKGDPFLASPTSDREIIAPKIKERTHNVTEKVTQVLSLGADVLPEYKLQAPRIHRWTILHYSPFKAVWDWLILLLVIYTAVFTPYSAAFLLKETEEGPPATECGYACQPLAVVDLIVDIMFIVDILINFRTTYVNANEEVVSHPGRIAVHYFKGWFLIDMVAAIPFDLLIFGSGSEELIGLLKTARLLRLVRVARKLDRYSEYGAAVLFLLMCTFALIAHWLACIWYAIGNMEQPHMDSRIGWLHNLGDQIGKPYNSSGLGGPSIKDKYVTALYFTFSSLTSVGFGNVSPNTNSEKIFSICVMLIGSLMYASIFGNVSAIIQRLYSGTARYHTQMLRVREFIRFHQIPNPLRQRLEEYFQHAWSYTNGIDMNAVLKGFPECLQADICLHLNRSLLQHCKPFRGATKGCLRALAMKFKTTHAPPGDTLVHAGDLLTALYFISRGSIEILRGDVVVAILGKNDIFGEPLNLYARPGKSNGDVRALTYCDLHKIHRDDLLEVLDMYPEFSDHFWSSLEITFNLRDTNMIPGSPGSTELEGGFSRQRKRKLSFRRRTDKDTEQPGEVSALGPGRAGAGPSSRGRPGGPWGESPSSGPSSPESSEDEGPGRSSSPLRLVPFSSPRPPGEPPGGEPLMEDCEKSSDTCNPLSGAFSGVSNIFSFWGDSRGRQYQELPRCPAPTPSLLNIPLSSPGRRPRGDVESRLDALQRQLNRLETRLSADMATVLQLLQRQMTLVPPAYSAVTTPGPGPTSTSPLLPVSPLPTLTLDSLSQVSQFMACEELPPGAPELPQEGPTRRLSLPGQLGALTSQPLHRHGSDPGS
row,Structure (SMILES),"hERG current change (%, negative = inhibition) at 10uM"
1,Cn1c(=O)c2c(ncn2CC(=O)N2CCN(S(=O)(=O)c3ccc(F)cc3)CC2)n(C)c1=O,-12.6%
2,CC(C(=O)O)N(c1ccccc1Cl)S(C)(=O)=O (stereo not drawn),-9.79%
3,CCOC(=O)Cc1csc(NC(=O)CSC2=NCCS2)n1,8.47%
4,Cc1nc(C(C)NC(=O)CCc2nnc(CCCc3ccccc3)o2)c(C)s1 (stereo not drawn),-3.53%
5,COc1ccc(Oc2c(O)c3ccccc3n(C)c2=O)cc1,7.23%
6,Cc1cc(NC(=O)C2CC(=O)N(c3ccccc3C)C2)no1 (stereo not drawn),16.1%
7,CC(=O)c1cc(C#N)c(SCCC(C)C)nc1C,4.67%
8,COc1cccc(N2CC(C(=O)Nc3nnc(SCC(=O)NCc4ccco4)s3)CC2=O)c1 (stereo not drawn),13.8%
9,CCOC(=O)c1ccc(N2C(=O)CC(Sc3nc(O)c(CC)c(=O)[nH]3)C2=O)cc1 (stereo not drawn),25.8%
10,CCOC(=O)C1CCCN(C(=O)c2ccc3c(c2)N(Cc2ccccc2)C(=O)c2ccccc2S3=O)C1 (stereo not drawn),-13.2%
11,CC12CNCC(C)(CNC1)C2O (stereo not drawn),10.7%
12,COC(=O)CNC(=O)COC(=O)c1cc(F)c(F)cc1Cl,5.29%
13,OC(CSc1c(Cl)cccc1Cl)CN1CCN(c2ccccc2F)CC1 (stereo not drawn),-39.8%
14,COc1ccccc1COCC(O)CN1CCN(S(=O)(=O)c2cccc(F)c2)CC1 (stereo not drawn),-16.9%
15,O=C(COc1ccccc1)Nc1nc2cc3c(cc2s1)OCCO3,7.49%
16,Cc1nc2cc(NC(=O)Nc3cccc(F)c3)ccc2n1C,0.0965%
17,Nc1ccc(NC(=O)NC2CCCCC2)cc1,12.5%
18,COc1cc(OC)c(NC(=O)CC(=O)Nc2cc(Cl)c(OC)cc2OC)cc1Cl,17.2%
19,CCOc1cc(/C=N/N2C(=O)NC3(CCCCC3)C2=O)cc(Br)c1O,21.1%
20,Cc1ccc(S(=O)(=O)NC2CC(C)(C)N(O)C(C)(C)C2)cc1.Cl,8.85%
21,Cc1ccc(NC(=O)c2snc3ccc(Cl)cc23)cc1C,6.27%

row,Structure (SMILES),"hERG current change (%, negative = inhibition) at 10uM"
1,NS(=O)(=O)c1ccc(CCNC(=O)C(=O)c2cn(CC(=O)N3CCOCC3)c3ccccc23)cc1,21.1%
2,CCC1C(=O)Nc2ccccc2N1C(=O)c1ccc(Cl)nc1 (stereo not drawn),-7.27%
3,NC(=O)C[C@@H]1N[C@]2(C(=O)Nc3ccccc32)[C@@H]2C(=O)N(c3cc(C(F)(F)F)ccc3Cl)C(=O)[C@H]12,4.19%
4,CC(=O)c1c(C)nn(CC(=O)NC2CCCN(Cc3ccc(CC(C)C)cc3)C2)c1C (stereo not drawn),-73.4%
5,O=C(COc1ccccc1F)Nc1ccc(S(=O)(=O)Nc2nccs2)cc1,8.95%
6,CCOC(=O)N1CCN(C(=O)c2ccc(OC(C)=O)cc2)CC1,16%
7,Cc1ccc2cc(CN(CCCN3CCOCC3)C(c3nnnn3Cc3ccco3)C(C)C)c(=O)[nH]c2c1C (stereo not drawn),-39.4%
8,COc1cc([C@H]2Oc3cc([C@H]4Oc5cc(O)cc(O)c5C(=O)[C@@H]4O)ccc3O[C@@H]2CO)ccc1O,4.35%
9,CCc1nonc1NC(=O)c1oc2ccc(Cl)cc2c1C,13.2%
10,CCn1c2ccccc2c2cc(NC(=O)COC(=O)c3cc(S(N)(=O)=O)c(Cl)cc3Cl)ccc21,7.77%
11,COc1ccc2c(c1)CCN(C(=O)CCl)C2C1C(=O)CCCC1=O (stereo not drawn),5.82%
12,CSCCC(=O)N1CCN(CC(=O)N2CCCC2)CC1,-9.49%
13,CC(=O)Nc1ccc(N=C(C2=C(O)c3ccccc3C2=O)c2ccccc2)cc1,-6.31%
14,O=C(/C=C\c1ccccc1)Nc1ccc(NC(=O)c2ccco2)cc1,7.91%
15,CC(OC(=O)CNS(=O)(=O)c1ccc(C#N)cc1)C(=O)Nc1ccc(Cl)cn1 (stereo not drawn),-45.3%
16,O=C(Nc1ccc(S(=O)(=O)N2CCOCC2)cc1)c1ccc(=O)[nH]c1,11.9%
17,CCN(CC)c1ccc(NC(=O)CCc2nnc3ccc(N4CCCC4)nn23)c(C)c1,-9.8%
18,CCOc1cc2c(cc1OCC)-n1cccc1C(c1cc(C)c(OC)cc1C)NC2.Cl (stereo not drawn),-62.1%
19,Cc1cc2c(cc1S(=O)(=O)NCc1ccccc1)NC(=O)CO2,-0.941%
20,Cc1ccccc1N=C(NOCc1ccc(Cl)cc1Cl)c1nonc1N,-18.1%
21,CC1(C)CC2(CCCN(C(=S)Nc3ccccc3)C2)CCO1 (stereo not drawn),14%

row,Structure (SMILES),"hERG current change (%, negative = inhibition) at 10uM"
1,CN(CC(=O)NCc1ccc(Cl)cc1)S(=O)(=O)c1cccc2nsnc12,-52.5%
2,Cc1cc(N2C(=O)C(O)=C(C(=O)c3ccco3)C2c2cccnc2)no1 (stereo not drawn),7.94%
3,COc1ccccc1Nc1nc(C)cc(=O)[nH]1,-7.91%
4,CCCCCOc1ccccc1C(=O)NCC(=O)O,9.87%
5,CCc1nnc(NC(=O)C2Cc3ccccc3C(=O)O2)s1 (stereo not drawn),12.1%
6,O=C(O)CCNS(=O)(=O)c1cccc2nsnc12,7.88%
7,COc1ccc(-c2ccc(/C=C3/C(=N)N4C(C)=CSC4=NC3=O)o2)c([N+](=O)[O-])c1,9.58%
8,Nc1cc(N)nc(SCC(=O)NCCC2=CCCCC2)n1,-8.78%
9,COc1ccc(/C=C2\SC(=N)N(c3ccc(F)cc3)C2=O)cc1OC,17%
10,COc1ccccc1-c1cc(C(=O)N/N=C/c2ccc(C)s2)c2ccccc2n1,7.8%
11,CCOC(=O)c1ccccc1NC(=O)COC(=O)C1CCCC1,-2.49%
12,COC(=O)C1C(=O)C2=C(CC1C)NC(C)=C(C(=O)OC1CCCC1)C2c1ccc(N(C)C)cc1 (stereo not drawn),-8.36%
13,COC(=O)c1sccc1NC(=O)CSc1ccccc1NC(=O)CNC(C)C,-6.04%
14,COc1ccc(CCNC(=O)CSc2ncnc3c2oc2ccccc23)cc1OC,-13.1%
15,Cc1ccc(C2C(C=Nc3c(C)n(C)n(-c4ccccc4)c3=O)=C(c3ccccc3)Oc3ccccc32)cc1 (stereo not drawn),7.45%
16,O=C(O)c1nn(-c2ccccc2)ccc1=O,12.8%
17,O=[N+]([O-])c1cc(S(=O)(=O)N2CCCC2)ccc1N/N=C/c1cccnc1,4.5%
18,COc1ccc([N+](=O)[O-])cc1NC(=O)C(C)Sc1nc(-c2ccccc2)cs1 (stereo not drawn),8.17%
19,Cc1ccccc1C(=O)O/N=C(\c1ccccc1)c1ccccn1,-29.2%
20,Cc1cc(C)n(-c2cc(N3CCN(C(=O)c4ccc(C(C)(C)C)cc4)CC3)ccc2[N+](=O)[O-])n1,-34.4%
21,COc1ccc(C2C3=C(CC(C)(C)CC3=O)Oc3ncn(CC(C)C)c(=N)c32)cc1 (stereo not drawn),-69.1%

row,Structure (SMILES),"hERG current change (%, negative = inhibition) at 10uM"
1,O=C(CN1CCN(c2nc(-c3ccc(F)cc3)cs2)CC1)NCc1ccc2c(c1)OCO2,-28.9%
2,CC1(c2ccc(OC(F)F)cc2)NC(=O)N(CC(=O)Nc2cccc(S(N)(=O)=O)c2)C1=O (stereo not drawn),6.01%
3,O=C(CN(C(=O)c1csnn1)c1ccc(F)c(Cl)c1)NCc1ccc(F)cc1,7.3%
4,COc1ccc(C(CNC(=O)C2CCN(S(=O)(=O)c3ccc(F)cc3)CC2)N(C)C)cc1 (stereo not drawn),-6.63%
5,CCOC(=O)C1C(C)=C(Nc2ccc(OC)cc2)C(=O)N1c1ccc(OC)cc1 (stereo not drawn),10.4%
6,O=C(Cc1ccccc1)Nc1cccc(C(=O)N/N=C/c2ccco2)c1,-2.77%
7,COc1cc(C(C)=O)ccc1OCC(O)CN1CCN(S(=O)(=O)c2ccccc2)CC1 (stereo not drawn),-11.5%
8,O=C(Nc1ccc2oc(-c3ccccc3F)nc2c1)c1ccc([N+](=O)[O-])o1,9.46%
9,COc1ccc(CCNC(=O)c2ccc(OCc3c(C)noc3C)cc2)cc1OC,-3.43%
10,COP(=O)(OC)C(Nc1cc(Cl)cc(Cl)c1)c1cccc(O)c1 (stereo not drawn),15.9%
11,CCOC(=O)c1cccc(NC(=O)C2CCN(c3ncnc4c3nc3n4CCCCC3)CC2)c1,11.5%
12,CC(=O)N1CCN=C1SCc1cccc(F)c1,13.8%
13,O=C(CSc1nnc(CN2CCOCC2)n1-c1ccccc1)Nc1ccc(Cl)cc1,-32.5%
14,CC(=O)c1ccc(N2Cc3ccccc3C2=NC(=O)c2cccs2)cc1,-20.6%
15,CCOc1ccc(-n2c(SCC(=O)Nc3ccccc3C)n[nH]c2=O)cc1,11.9%
16,CCOC(=O)c1c(O)c2cc(Cl)ccc2n(CC)c1=O,10.4%
17,C=CCn1c(O)c(CN2CCCCC2)c(C)c(C#N)c1=O,25.4%
18,CC(NC(=O)C1CCCCC1)C(=O)NC1=NCCS1 (stereo not drawn),-7.06%
19,CCCC(=O)NC(c1ccco1)c1cc([N+](=O)[O-])c2cccnc2c1O (stereo not drawn),6.41%
20,CC(C)(C)C1CCc2c(sc(NC(=O)CSc3ncn[nH]3)c2C#N)C1 (stereo not drawn),5.74%
21,CCc1ccc(CN(C)C(=O)CCc2nc3ccccc3n(-c3ccc(OC)cc3)c2=O)cc1,-0.36%
